Certain results were filed several times, with different values. This list holds those alone. The source may hold further records. Values that stand side by side are repeats in other runs, samples, wells, individuals or studies. Counts like (3×) count equal records among those shown. Dates in brackets are months of testing.
Tested on: 299254-011-R-J1-PDC complex spheroid viability
Assay: Anticancer human tumor 299254-011-R-J1-PDC patient-derived melanoma cell line growth inhibition [POLQ]
Details: stronger effect = lower value
Description: Multicellular complex tumor spheroid response to Polymerase (POL) inhibitors (novobiocin, ART-558, RP6685) in combination with a variety of drugs and investigational agents in selected tumor cell lines
The POL inhibitors (novobiocin, ART-558, and RP6685) were evaluated both individually and in combination with standard of care and investigational anticancer small molecules within a complex spheroid model of solid tumors. . Complex spheroids include a stromal component modeled by human endothelial cells (HUVEC) and fibroblasts modeled by human mesenchymal stem cells (MSCs). The concentration ranges selected for each drug and investigational agent were based upon clinically achievable concentrations if the clinical Cmax of the agent was known.
Compounds. The drugs and investigational agents: novobiocin (NSC847541), ART-558 (NSC835418), RP-6685 (NSC848927), peposertib (NSC802822), ceralasertib (NSC780249), elimusertib (NSC800525), camonsertib (NSC841442), AZD-1390 (NSC803789), olaparib (NSC753686), talazoparib (NSC767125), rucaparib (NSC756644), sotorasib (NSC818433), MRTX-1133 (NSC836407), SN-38 (NSC673596), topotecan (NSC609699), epotoside (NSC141540), doxorubicin (NSC123127), gemcitabine (NSC613327), 5-fluorouracil (NSC19893), paclitaxel (NSC125973), vemurafenib (NSC761431), MSA-2 (NSC828583), SN-011 (NSC837082), adavosertib (NSC754352), prexasertib (NSC758257), carboplatin (NSC241240) and oxaliplatin (NSC266046), were obtained from the National Cancer Institute (NCI) Developmental Therapeutics Program Chemical Repository (21). The FDA-approved anticancer drug set is available from the Developmental Therapeutics Program at https://dtp.cancer.gov/organization/dscb/obtaining/. […] The stock solutions were prepared in dimethyl sulfoxide (DMSO, Sigma-Aldrich, St. Louis, MO, cat. D2650), except for the platinum compounds which were prepared in saline (Quality Biological, Gaithersburg, MD, cat. 114-055-101), at 800-fold the tested concentration and stored at -70 degrees C prior to their use. All drugs and investigational agents were tested over a range starting from a high concentration at or near the clinical Cmax and decreasing in half-log increments. If the clinical Cmax for an agent had not been determined, the highest concentration tested was 10 microM, except for SN-38, which was tested at a high concentration of 1 microM.
Cell Culture. All cells were maintained in an incubator at 37 degrees C and 5% CO2 with 95% humidity. The PDC lines were cultured according to standard operating procedures established by the NCI PDMR (https://pdmr.cancer.gov). Table 3 of the manuscript, lists the cell lines along with the number of the three cell types plated to form the mct-spheroids and media for tumor cell growth. After thawing, all PDC lines, except 997537-175-T-J1-PDC and 415267-285-R-J2-PDC, were cultured in Matrigel-coated flasks prepared with a working solution of 1X Ham's F-12 nutrient mix, without supplementation (Thermo Fisher Scientific, cat. 11765054), 100 U/mL penicillin-streptomycin (Thermo Fisher Scientific, cat. 15140122), and 2.5% Matrigel (Corning Inc., Corning, NY, cat. 354248) for the first three passages. The two PDC lines 997537-175-T-J1-PDC and 415267-285-R-J2-PDC were cultured on uncoated flasks. The 857933-349-R-J2-PDC line was cultured in 6C/Colon 1B media containing advanced DMEM/F-12 (Thermo Fisher Scientific, cat. 12634028), 10 mM HEPES (Thermo Fisher Scientific, cat. 15630080), 1X GlutaMAX supplement (Thermo Fisher Scientific, cat. 35050061), 0.1 mg/mL primocin (InvivoGen, San Diego, CA, cat. ant-pm-2), 10% defined fetal bovine serum, heat inactivated (HyClone Laboratories Inc., Logan, UT, cat. SH30070.03HI), 50% L-WRN conditioned media (ATCC, cat. CRL-3276), 1.25 mM N-Acetyl-L-cysteine (Sigma-Aldrich, cat. A9165), 10 mM nicotinamide (Sigma-Aldrich, cat. N0636), 1X B-27 supplement (Thermo Fisher Scientific, cat. 17504044), 1X N-2 supplement (Thermo Fisher Scientific, cat. […]
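Also: spheroids exposed to drugs for one week before measurement; percent viability relative to DMSO vehicle control taken as 100%.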

COC1C(OC(N)=O)C(O)C(Oc2ccc3c(O)c(NC(=O)c4ccc(O)c(CC=C(C)C)c4)c(=O)oc3c2C)OC1(C)C (stereo unspecified)
viability, T/C (compound alone 0.0316 µM): 107 (3×), 99.5, 120, 90.8, 104 (2×), 96.4, 113, 100, 102, 111%
viability, T/C (compound alone 0.1 µM): 92.4, 100 (2×), 119, 99.9, 106, 103 (2×), 105, 102 (2×), 111, 117%
viability, T/C (compound alone 0.316 µM): 104 (2×), 100 (2×), 135, 101, 107, 116, 105, 95.7, 109, 97, 96.7%
viability, T/C (compound alone 1 µM): 97.4, 104, 126, 93.7, 122, 106, 87.5, 98.5, 97.2, 97, 111, 105%
viability, T/C (compound alone 10 µM): 109, 91.4, 135, 100, 99.9, 108, 103, 111, 97.1, 105 (3×), 96.6%

Cc1cccc(N(C)C(=O)C2C(O)CCN2c2nc(C)cc(C(F)(F)F)c2C#N)c1 (stereo unspecified)
viability, T/C (compound alone 10 µM): 87.2, 99.9, 92.1, 100, 98.7, 94.1, 95.3, 97% [2023-11] and 96.1, 98.8, 99.8, 99.3, 113% [2023-12]

Source: PubChem BioAssay AID1963849 (Molecular Pharmacology Branch, DTP, NCI, 2024)
